# Test results reported in PubChem BioAssay AID1508624 (National Center for Advancing Translational Sciences (NCATS), 2021).
# Several values for one entry are separate records, joined by “and”; a condition that tells them apart may be missing. Equal entries are not always repeated. The campaign covered roughly 48,000 compounds. About 120 (0.25%) were called active. About 4% were inconclusive and are not listed. Calls follow the shape of the dose curve; as a rule, active = well fitted activation curve with a large enough effect; inconclusive = small, poorly fitted or top-dose-only effect, or another doubt; inactive = no such curve, though single readings can be large or run the other way. This is one part of the list.
# Test: Primary qHTS for Identification of Small Molecule Activators of Huntingtin-Antisense Promoter Activity; also: nearly all actives have a fitted effect of over 55% in size
# Conditions: HEK293 HTT-AS promoter firefly luciferase reporter, 24 h; at 57.5 µM (top of the series) unless noted
# Procedure, shortened: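 HEK293 luciferase promoter-reporter cells (2,500/well) plated 24 h, then compounds added at up to 57.5 uM final for 24 h at 37 °C. Firefly luminescence by Dual-Glo, normalized to vehicle (0%) and zero RLU (-100%).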
row,Structure (SMILES),"activity change, positive = activation"
1,Cc1c(C(c2ccc(O)cc2)c2c(O)c3ccccc3oc2=O)c(=O)n(-c2ccccc2)n1C (stereo not given),inactive: -12.3%
2,NC(=O)c1ccc(NC(=O)c2cccn(Cc3ccccc3)c2=O)cc1,"inactive: 0.196% [at 57.5 µM, percent change from vehicle, -100% = no light]"
3,CCC1(CCC(C)C)C(=O)NC(=O)NC1=O,inactive: -9.21% [at 116 µM]
4,Cc1ccc(-n2c(/C=C/c3cccc(C(F)(F)F)c3)nc3ccccc3c2=O)cc1,"inactive: -9.05% [at 57.5 µM, percent change from vehicle, -100% = no light]"
5,O=c1c2ccccc2nc(/C=C\c2cccc(Br)c2)n1-c1ccc(O)cc1,inactive: -33%
6,Cc1cccc(-n2c(/C=C/c3cccc4ccccc34)nc3ccccc3c2=O)c1,inactive: -21%
7,CCSc1nnc(NC(=O)c2cccn(Cc3ccc(Cl)cc3)c2=O)s1,inactive: -8.47%
8,CCC1(C2=NCCN2)Cc2ccccc2O1 (stereo not given),inactive: -7.93%
9,CC[C@@H](CO)NC(=O)[C@@H]1C=C2c3cccc4[nH]cc(c34)C[C@H]2N(C)C1,inactive: -7.19%
10,Cc1cccc(OC(C)C(=O)NCC2(N(C)C)CCCCC2)c1C (stereo not given),inactive: 1.53%
11,Cc1nnc(NC(=O)c2cccn(Cc3ccccc3)c2=O)s1,"inactive: 8.17% [at 57.5 µM, percent change from vehicle, -100% = no light]"
12,Cc1nnc2n1-c1sc(CCC(=O)N3CCOCC3)cc1C(c1ccccc1Cl)=NC2,inactive: -6.26%
13,CCCc1nc(SC)ncc1C(=O)Nc1ccc(Cl)cc1C(=O)c1ccccc1,inactive: -28.2%
14,CC[N+]1(C)CCCC(OC(=O)C(O)(c2ccccc2)c2ccccc2)C1 (stereo not given),inactive: -4.82%
15,O=C(Nc1nc2ccccc2s1)c1cccn(Cc2ccccc2)c1=O,inactive: -41.3%
16,CC(Cc1ccccc1)N(C)Cc1ccco1 (stereo not given),inactive: -2.07%
17,CN(C)CCc1c[nH]c2ccccc12,inactive: -4.28% [at 222 µM]
18,COc1ccc(CC2NCCc3cc(OC)c(OC)cc32)cc1OC (stereo not given),inactive: -33.5%
19,CCCCCC[C@H]1C(=O)O[C@H](C)[C@H](NC(=O)c2cccc(NC=O)c2O)C(=O)O[C@@H](C)[C@@H]1OC(=O)CC(C)C,inactive: -94.1%
20,O=C(COc1ccccc1Cl)N1CCN(CCc2ccccn2)CC1,inactive: 9.77% [at 11.5 µM]
21,c1ccc2c(c1)OCC(C1=NCCN1)O2 (stereo not given),inactive: -4.9%
22,Nc1ccc([N+](=O)[O-])cc1,inactive: -10% [at 116 µM]
23,CN1C(=O)CN=C(c2ccccc2)c2cc(Cl)ccc21,inactive: -18.1%
24,CC(Cc1ccccc1)NCc1ccccc1Cl (stereo not given),inactive: 0.253%
25,C[C@]12CC[C@H](O)CC1=CC[C@@H]1[C@@H]2CC[C@]2(C)C(=O)CC[C@@H]12,inactive: -14.5%

row,Structure (SMILES),"activity change, positive = activation"
1,COc1ccc(NC(=O)CN2C(=O)CN=C(c3ccccc3)c3ccccc32)c(OC)c1,"inactive: -21.9% [at 57.5 µM, percent change from vehicle, -100% = no light]"
2,COc1ccccc1CN1CCN(C(=O)COc2cccc(C)c2)CC1,inactive: -2.5%
3,c1ccc(CN2CCNCC2)cc1,inactive: -4.6% [at 222 µM]
4,Cc1ccccc1-n1nc(C)c2c1NC(=O)CSC2c1ccccc1C(F)(F)F (stereo not given),inactive: -31.5%
5,COP(=S)(OC)Oc1ccc(S(=O)(=O)N(C)C)cc1,inactive: -15.8%
6,CNC(=O)c1ccc(N2C(=S)N(c3ccc(C#N)c(C(F)(F)F)c3)C(=O)C23CCC3)cc1F,inactive: -32.7%
7,CCOc1ccc(CN(CCc2ccc3c(c2)OCO3)Cc2ccc(CC)cc2)cc1,"inactive: -10.3% [at 57.5 µM, percent change from vehicle, -100% = no light]"
8,C[CH2][Hg][S]c1ccccc1C(=O)O,inactive: -95.5%
9,C=CCON=C(C[C@H]1O[C@@H]2O[C@]3(C)CC[C@@H]4[C@H](C)CC[C@@H]([C@H]1C)[C@@]24OO3)[C@H]1O[C@@H]2O[C@]3(C)CC[C@H]4[C@H](C)CC[C@@H]([C@@H]1C)[C@@]24OO3,inactive: -24.5%
10,COc1ccc2c(c1OC)CN1CCc3cc4c(cc3C1C2)OCO4 (stereo not given),inactive: -13% and inactive: -1.65%
11,CN1CCC(N(Cc2ccccc2)c2ccccc2)CC1,inactive: -16.1%
12,COc1ccc(OC)c(CCNCc2c(C(=O)O)c(C)n(Cc3ccc(F)cc3Cl)c2C)c1,"inactive: -12% [at 57.5 µM, percent change from vehicle, -100% = no light]"
13,Cc1cc(OCC(=O)N2CCN(CCc3ccncc3)CC2)cc(C)c1Cl,inactive: -18.5%
14,COc1ccc(NC(=O)CCc2nc(C3=CCN(Cc4cccc(C)c4)CC3)no2)c(OC)c1,"inactive: 3.73% [at 57.5 µM, percent change from vehicle, -100% = no light]"
15,CN[C@@H]1Cc2cccc3[nH]c(=O)n(c23)C1,inactive: -9.2%
16,O=C1NCN(c2ccccc2)C12CCN(CCCOc1ccc(F)cc1)CC2,inactive: -12.5%
17,CCCCCCCCCCCCCCCC[N+](C)(C)C,inactive: -36.5%
18,Cc1cccc(-n2c(/C=C\c3cccc(Br)c3)nc3ccccc3c2=O)c1,inactive: -25%
19,CN1C[C@H](CNC(=O)OCc2ccccc2)C[C@@H]2c3cccc4c3c(cn4C)C[C@H]21,inactive: -21.3%
20,Cc1ccc(Cn2cccc(C(=O)Nc3ccc(C)c(Cl)c3)c2=O)cc1,inactive: -16%
21,COC[C@H]1OC(=O)c2coc3c2[C@@]1(C)C1=C(C3=O)[C@@H]2CC[C@H](O)[C@@]2(C)C[C@@H]1OC(C)=O,inactive: -39.1%
22,O=[N+]([O-])c1ncc[nH]1,inactive: -15.8%
23,COc1ccc(C2CC(=O)Oc3c2c(=O)oc2ccccc32)c(OC)c1OC (stereo not given),inactive: -11.9%
24,CCN[C@H](C)Cc1cccc(C(F)(F)F)c1,inactive: -13.2% [at 116 µM]
25,CCCCCCCCCC(=O)O[C@H]1CC[C@H]2[C@@H]3CCC4=CC(=O)CC[C@@H]4[C@H]3CC[C@]12C,inactive: 1.43%

row,Structure (SMILES),"activity change, positive = activation"
1,Cc1ccc(CNC(=O)CCCn2c(=O)c3sccc3n(CC(=O)Nc3c(C)cccc3C)c2=O)cc1,inactive: -17.1%
2,CC#C[C@]1(O)CC[C@H]2[C@@H]3C[C@H](C)C4=CC(=O)CC[C@]4(C)[C@H]3CC[C@@]21C,inactive: -27.7%
3,CC(C)c1cccc(C(C)C)c1O,inactive: -4.87% and inactive: -14.2%
4,Cc1nc(-c2ccc(-c3ccc(C(=O)N4CCc5cc6c(cc54)C4(CCN(C)CC4)CO6)cc3)c(C)c2)no1,inactive: -14%
5,CC(C)C(Br)C(=O)NC(N)=O (stereo not given),inactive: -1.25%
6,COP(=O)(OC)OC=C(Cl)Cl,inactive: 4.7%
7,C[C@@H]1O[C@@H](O[C@@H]2C=C3CC[C@@H]4[C@@H](CC[C@]5(C)[C@H](c6ccc(=O)oc6)CC[C@@]45O)[C@@]3(C)CC2)[C@H](O)[C@H](O)[C@H]1O,inactive: -50%
8,N#CC(C#N)=Cc1ccc(O)c(O)c1,inactive: 12.8%
9,COc1ccc(C)cc1NC(=O)c1cccn(Cc2ccccc2Cl)c1=O,inactive: -18.4%
10,Cc1ccc(-n2c(/C=C/c3cc(Br)cs3)nc3ccccc3c2=O)cc1C,"inactive: 0.19% [at 57.5 µM, percent change from vehicle, -100% = no light]"
11,Oc1ccc2c3c1O[C@H]1[C@@H](O)C=C[C@H]4[C@@H](C2)NCC[C@@]341,inactive: -16.2% [at 116 µM]
12,C#C[C@]1(O)C=C[C@@H]2[C@@H]3CCC4=CC(=O)CC[C@@H]4[C@H]3CC[C@@]21CC,inactive: -6.81%
13,CCNc1nc(Cl)nc(NCC)n1,inactive: -11%
14,O=C(COc1ccccc1[N+](=O)[O-])N1CCN(CCc2ccncc2)CC1,inactive: -19%
15,Cc1cccc(C)c1NC(=O)CN1CCCC1=O,inactive: -9.44% and inactive: -1.77%
16,Cc1cccc(C)c1OCC(=O)Nc1ccc(Cl)cc1C(=O)c1ccccc1,"inactive: -19% [at 57.5 µM, percent change from vehicle, -100% = no light]"
17,C=CCC1=C(C)C(OC(=O)C2C(C=C(C)C)C2(C)C)CC1=O (stereo not given),inactive: -19.6% [at 116 µM]
18,C[C@@H]1CC2=CC(=O)CC[C@@H]2[C@H]2CC[C@@]3(C)[C@@H](CC[C@]3(C)O)[C@@H]21,inactive: -23%
19,CN1CCC(O)(c2ccc(F)cc2)C(C(=O)c2ccc(F)cc2)C1 (stereo not given),inactive: -5.96%
20,Cn1cc(C2=C(c3cn(C4CCN(Cc5ccccn5)CC4)c4ccccc34)C(=O)NC2=O)c2ccccc21,inactive: -21.5% and inactive: -11.5%
21,Cn1c(=O)n(C)c2cc(CNCCc3ccccc3F)ccc21,"inactive: -8.97% [at 57.5 µM, percent change from vehicle, -100% = no light]"
22,O=c1n(Cl)c(=O)n(Cl)c(=O)n1Cl,inactive: 1.95%
23,Cc1ccc(-n2c(/C=C/c3ccccc3)nc3ccccc3c2=O)cc1Cl,inactive: -6.87%
24,C=CCN1CC[C@]23c4c5ccc(O)c4O[C@H]2C(=O)CC[C@@]3(O)[C@H]1C5,inactive: -1.73%
25,O=C1CC(c2ccccc2Br)c2c(c3ccccc3oc2=O)O1 (stereo not given),"inactive: -4.8% [at 57.5 µM, percent change from vehicle, -100% = no light]"
